Laboratory results from patent US20260216242A1, “ALPP-SPECIFIC VARIANT ANTIGEN BINDING MOLECULES” (ALMAC DISCOVERY LIMITED, priority 2022, published 2026).
Where a chain is given by its changes, count along the chain named. Numbers in names are those of the source.

T1: ALPI expressed on the surface of CHO cells (CHO-ALPI) (Homo sapiens, UniProt P09923)
T1 construct: expressed in transfected cells
T1 sequence (P09923 20-503 limits assumed): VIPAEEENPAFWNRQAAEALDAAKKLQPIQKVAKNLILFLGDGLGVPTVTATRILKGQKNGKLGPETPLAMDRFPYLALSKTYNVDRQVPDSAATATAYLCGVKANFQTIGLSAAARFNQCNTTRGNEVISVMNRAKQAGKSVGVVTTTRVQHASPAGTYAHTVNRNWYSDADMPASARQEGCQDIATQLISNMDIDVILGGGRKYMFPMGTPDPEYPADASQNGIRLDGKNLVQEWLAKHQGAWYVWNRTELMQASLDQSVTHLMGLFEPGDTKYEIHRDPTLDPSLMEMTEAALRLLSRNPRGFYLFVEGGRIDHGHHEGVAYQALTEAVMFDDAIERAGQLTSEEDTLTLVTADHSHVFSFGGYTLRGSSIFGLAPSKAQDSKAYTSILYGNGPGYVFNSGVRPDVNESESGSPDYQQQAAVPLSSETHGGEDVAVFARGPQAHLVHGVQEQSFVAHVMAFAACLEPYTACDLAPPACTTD

B1: C07-hFc (S239C): C07 VHH fused via [G4S]3 linker to human IgG1 Fc with S239C (protein)
chain: QVQLVESGGGLVQAGESLRLACAASGTIFSGNAVGWYRQAPEKQREWVSSITDYGDTDYAEAVKGRFTISRDNAKNTVYLQMNSLKPEDTAVYYCYVYQRGESEEYWGQGTQVTVSSGGGGSGGGGSGGGGS[human IgG1 Fc with changes not spelt out]
B2: D10-hFc (S239C): D10 VHH fused via [G4S]3 linker to human IgG1 Fc with S239C (SEQ ID NO: 98) (protein)
chain: QVQLVESGGGLVQPGGSLRLSCAASGSIFSVNTMGWYRQAPGKQRDLVAVATSGGTIHYADSVKGRFTISRDNAKNTVYLQMNSLKPEDTAVYYCNLVVPYGMIAGDHDYWGQGTKVTVSSGGGGSGGGGSGGGGS[human IgG1 Fc with changes not spelt out]
B3: E06-hFc (S239C): E06 VHH fused via [G4S]3 linker to human IgG1 Fc with S239C (SEQ ID NO: 99) (protein)
chain: QVHLVESGGGLVQAGGSLRLSCAASRRSFSEYAMGWFRQAPGKEREFVAAIGWSGVIEYADSVKGRFTISRDNAKDTVYLQMNSLKPEDTAVYYCAAGLGIRVVSQTPAYWGQGTQVTVSSGGGGSGGGGSGGGGS[human IgG1 Fc with changes not spelt out]
B4: E10-hFc (S239C): E10 VHH fused via [G4S]3 linker to human IgG1 Fc with S239C (SEQ ID NO: 100) (protein)
chain: QVQLVESGGGLVQAGGSLRLSCAVSGRALSDYNIGWFRQAPGKEREFVARKTWDGSSTRYDDSVKGRFTVSIEDAKNTAYLQMSSLKTEDTAVYYCAAGRYSRARGWEYDYWGQGTQVTVSSGGGGSGGGGSGGGGS[human IgG1 Fc with changes not spelt out]
B5: F05-hFc (S239C): F05 VHH fused via [G4S]3 linker to human IgG1 Fc with S239C (SEQ ID NO: 101) (protein)
chain: QVQLVESGGGLVQAGGSLRLSCAASGRAFGDYNIGWFRQAPGKEREFVARRTWDGSSTRYDDSVKGRFTVSIDNAKNTAYLQMNSLKTEDTAVYYCAAGRYSRVRGWEYDYWGQGTQVTVSSGGGGSGGGGSGGGGS[human IgG1 Fc with changes not spelt out]
B6: A06-hFc (S239C): A06 VHH fused via [G4S]3 linker to human IgG1 Fc with S239C (SEQ ID NO: 97) (protein)
chain: QVHLVESGGGLVQAGGSLRLSCAASGRTFLSMGWFRQAPGKEREFVAAISWTGGSTGYADSVKGRFTISRESDKETMYLQMNSLKPEDTAVYYCAARGDVYYGGDDATRYKYWGQGTQVTVSSGGGGSGGGGSGGGGS[human IgG1 Fc with changes not spelt out]
B7: B01-hFc (S239C): B01 VHH fused via [G4S]3 linker to human IgG1 Fc with S239C (protein)
chain: QVQLVESGGGLVQAGGSLRLSCEVTRSPMPIDTMAWYRQAPGRQRELVAIISRSGSTNYADSVKGRFTISRNDTKSTMYKSTMYLKMNTLELEDTGVYYCNAVGLWNGAEYWGQGTQVTVSSGGGGSGGGGSGGGGS[human IgG1 Fc with changes not spelt out]

Target: T1, ALPI expressed on the surface of CHO cells (CHO-ALPI)
Experiment: Cell-surface binding by flow cytometry, CHO-ALPI
Details: VHH-hFc proteins, flow cytometry, up to 350 nM
Method: C-terminal His tagged VHH proteins were assessed for ALPP, ALPPL2, ALPI and ALPL cell-surface binding by flow cytometry. Binders encompassing different epitope bins were screened on CHO cells stably expressing ALPP, ALPPL2, ALPI or ALPL. High levels of cell-surface proteins expression were confirmed for each of the cell-lines by flow cytometry.
Cell surface binding of test agents to hALPP isoforms was characterized in four CHO-ALPP isoform stably transfected cell lines (CHO-ALPP, CHO-ALPPL2, CHO-ALPI and CHO-ALPL) and the resulting KDapp values determined. Adherent cells were detached from tissue culture flasks by incubating with 0.1% EDTA/PBS solution at 37° C. for ~10 minutes or until cells detached easily. Cells were re-suspended in ice-cold PBS/2% FCS in 15 ml tubes and centrifuged at 1700 rpm for 5 mins at 4° C. Supernatant was removed and the cell pellet re-suspended in PBS/2% FCS. A cell count was performed using a Chemometec Nucleocounter NC-202 and 2.5×10^5 cells were aliquoted per test sample into a 96 well plate. Cells were incubated with 100 μl of test agents at a range of concentrations, plus controls for 1 hr on ice. The sample plate was centrifuged at 1700 rpm for 5 mins at 4° C. The supernatant was removed, and a wash performed by re-suspending the cell pellets in 0.25 mL of ice-cold PBS/2% FCS using a multichannel pipette. Samples were again centrifuged at 1700 rpm for 5 min at 4° C. Supernatant was removed and two further washes performed as described. After the final wash and centrifugation step, excess liquid was removed by blotting the plate on tissue paper. Binding of VHH (His6 tagged) agents was determined by adding 100 μl of anti-x6His tag Ab (Abcam) per cell pellet sample as appropriate and incubating on ice for 30 mins. Wash steps were performed as described previously. Fitc-anti-mouse antibody (ThermoFisher) was used to detect binding of the VHH (His6 tagged) agents by incubating with the appropriate samples for 30 min on ice in the dark. Wash steps were performed as described previously. All cell pellets were finally re-suspended in […] of ice-cold PBS/2% FCS and left on ice in the dark prior to analysis on a Merck-Millipore Guava EasyCyte HT or Thermo Fisher Attune N×T flow cytometer.
VHH-hFc proteins were assessed for human ALPP, ALPPL2, ALPI and ALPL cell-surface binding by flow cytometry. Binders were screened on CHO cells stably expressing human ALPP, ALPPL2, ALPI or ALPL.
Cell surface binding of test agents to hALPP isoforms was characterized in four CHO-ALPP isoform transfectant cell lines (CHO-ALPP, CHO-ALPPL2, CHO-ALPI and CHO-ALPL) and the resulting KDapp values determined. Adherent cells were detached from tissue culture flasks by incubating with 0.1% EDTA/PBS solution at 37° C. for ~10 minutes or until cells detached easily. Cells were re-suspended in ice-cold PBS/2% FCS in 15 ml tubes and centrifuged at 1700 rpm for 5 mins at 4° C. Supernatant was removed and the cell pellet re-suspended in PBS/2% FCS. A cell count was performed using a Chemometec Nucleocounter NC-202 and 2.5×10^5 cells were aliquoted per test sample into a 96 well plate. Cells were incubated with 100 μl of test agents at a range of concentrations, plus controls for 1 hr on ice. The sample plate was centrifuged at 1700 rpm for 5 mins at 4° C. The supernatant was removed, and a wash performed by re-suspending the cell pellets in 0.25 mL of ice-cold PBS/2% FCS using a multichannel pipette. Samples were again centrifuged at 1700 rpm for 5 min at 4° C. Supernatant was removed and two further washes performed as described. After the final wash and centrifugation step, excess liquid was removed by blotting the plate on tissue paper. Binding of VHH-hFc agents was determined by adding 100 μl of Fitc-anti-human Ab (ThermoFisher) and incubating for 30 mins on ice in the dark. Wash steps were performed as described previously. […]

Row | Molecule | KDapp CHO-ALPI
1 | B1 | No binding
2 | B2 | No binding
3 | B3 | No binding
4 | B4 | No binding
5 | B5 | No binding
6 | B6 | No binding

Same assay, conditions: VHH-hFc, highest concentration used (350 nM)

Row | Molecule | binding to CHO-ALPI cells (in words)
7 | B7 | very weak binding
